# Test results from the supplement of paper PMC8728848.
# Some of the results follow.
# B1: CVN (Nostoc ellipsosporum), P81180 (protein)
# chain: LGKFSQTCYNSAIQGSVLTSTCERTNGGYNTSSIDLNSVIENVDGSLKWQPSNFIETCRNTQLAGSSELAAECKTRAQQFVSTKINLDDHIANIDGTLKYE
# Assays:
# Assay in all cases: glycan array binding signal (z-score within array); higher = stronger binding
# Settings in all cases: glycan notation: IUPAC condensed, linker removed
# [1] = molecular target: Fuc(a1-2)[Gal(a1-3)]Gal(b1-4)Glc
# Method in brief: (§1)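 The binding signal is a Z-score computed within each array and averaged over linkers. Arrays of the same protein sequence at different concentrations or buffers were also averaged together. Data originate from 3228 arrays in the Consortium for Functional Glycomics database, kept only where the protein sequence was available.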
# [2] = molecular target: Fuc(a1-2)[Gal(a1-3)]Gal(b1-4)GlcNAc
# Method in brief: as §1
# [3] = molecular target: Fuc(a1-2)[Gal(a1-3)]Gal(b1-4)GlcNAc(b1-2)Man(a1-3)[Fuc(a1-2)[Gal(a1-3)]Gal(b1-4)GlcNAc(b1-2)Man(a1-6)]Man(b1-4)GlcNAc(b1-4)GlcNAc
# Method in brief: as §1
# [4] = molecular target: Fuc(a1-2)[Gal(a1-3)]Gal(b1-4)GlcNAc(b1-2)Man(a1-3)[Fuc(a1-2)[Gal(a1-3)]Gal(b1-4)GlcNAc(b1-2)Man(a1-6)]Man(b1-4)GlcNAc(b1-4)[Fuc(a1-6)]GlcNAc
# Method in brief: as §1
# [5] = molecular target: Fuc(a1-2)[Gal(a1-3)]Gal(b1-4)GlcNAc(b1-3)GalNAc
# Method in brief: as §1
# [6] = molecular target: Fuc(a1-2)[Gal(a1-3)]Gal(b1-4)[Fuc(a1-3)]Glc
# Method in brief: as §1
# [7] = molecular target: Fuc(a1-2)[Gal(a1-3)]Gal(b1-4)[Fuc(a1-3)]GlcNAc
# Method in brief: as §1
# [8] = molecular target: Fuc(a1-2)[Gal(a1-3)]Gal(b1-4)[Fuc(a1-3)]GlcNAc(b1-3)GalNAc
# Method in brief: as §1
# [9] = molecular target: Fuc(a1-2)[Gal(a1-4)]Gal(b1-4)GlcNAc
# Method in brief: as §1
# [10] = molecular target: Fuc(a1-2)[GalNAc(a1-3)]Gal
# Method in brief: as §1
# [11] = molecular target: Fuc(a1-2)[GalNAc(a1-3)]Gal(b1-3)GalNAc(a1-3)[Fuc(a1-2)]Gal(b1-4)GlcNAc
# Method in brief: as §1
# [12] = molecular target: Fuc(a1-2)[GalNAc(a1-3)]Gal(b1-3)GlcNAc
# Method in brief: as §1
# [13] = molecular target: Fuc(a1-2)[GalNAc(a1-3)]Gal(b1-3)GlcNAc(b1-2)Man(a1-3)[Fuc(a1-2)[GalNAc(a1-3)]Gal(b1-3)GlcNAc(b1-2)Man(a1-6)]Man(b1-4)GlcNAc(b1-4)GlcNAc
# Method in brief: as §1
# [14] = molecular target: Fuc(a1-2)[GalNAc(a1-3)]Gal(b1-3)GlcNAc(b1-2)Man(a1-3)[Fuc(a1-2)[GalNAc(a1-3)]Gal(b1-3)GlcNAc(b1-2)Man(a1-6)]Man(b1-4)GlcNAc(b1-4)[Fuc(a1-6)]GlcNAc
# Method in brief: as §1
# [15] = molecular target: Fuc(a1-2)[GalNAc(a1-3)]Gal(b1-3)GlcNAc(b1-3)GalNAc
# Method in brief: as §1
# [16] = molecular target: Fuc(a1-2)[GalNAc(a1-3)]Gal(b1-4)Glc
# Method in brief: as §1
# [17] = molecular target: Fuc(a1-2)[GalNAc(a1-3)]Gal(b1-4)GlcNAc
# Method in brief: as §1
# [18] = molecular target: Fuc(a1-2)[GalNAc(a1-3)]Gal(b1-4)GlcNAc(b1-2)Man(a1-3)[Fuc(a1-2)[GalNAc(a1-3)]Gal(b1-4)GlcNAc(b1-2)Man(a1-6)]Man(b1-4)GlcNAc(b1-4)GlcNAc
# Method in brief: as §1
# [19] = molecular target: Fuc(a1-2)[GalNAc(a1-3)]Gal(b1-4)GlcNAc(b1-2)Man(a1-3)[Fuc(a1-2)[GalNAc(a1-3)]Gal(b1-4)GlcNAc(b1-2)Man(a1-6)]Man(b1-4)GlcNAc(b1-4)[Fuc(a1-6)]GlcNAc
# Method in brief: as §1
# [20] = molecular target: Fuc(a1-2)[GalNAc(a1-3)]Gal(b1-4)GlcNAc(b1-3)Gal(b1-4)GlcNAc
# Method in brief: as §1
# [21] = molecular target: Fuc(a1-2)[GalNAc(a1-3)]Gal(b1-4)GlcNAc(b1-3)Gal(b1-4)GlcNAc(b1-3)Gal(b1-4)GlcNAc
# Method in brief: as §1
# [22] = molecular target: Fuc(a1-2)[GalNAc(a1-3)]Gal(b1-4)GlcNAc(b1-3)GalNAc
# Method in brief: as §1
# [23] = molecular target: Fuc(a1-2)[GalNAc(a1-3)]Gal(b1-4)[Fuc(a1-3)]GlcNAc
# Method in brief: as §1
# [24] = molecular target: Fuc(a1-2)[GalNAc(a1-3)]Gal(b1-4)[Fuc(a1-3)]GlcNAc(b1-3)GalNAc
# Method in brief: as §1
# [25] = molecular target: Fuc(a1-2)[GalNAc(a1-4)]Gal(b1-4)GlcNAc
# Method in brief: as §1
# [26] = molecular target: Fuc(a1-2)[GalNAc(b1-3)]Gal
# Method in brief: as §1
# Fuc(a1-3)GlcNAc = molecular target: Fuc(a1-3)GlcNAc
# Method in brief: as §1
# [27] = molecular target: Fuc(a1-3)[Gal(b1-4)]Glc6S
# Method in brief: as §1
# [28] = molecular target: Fuc(a1-3)[Gal(b1-4)]GlcNAc
# Method in brief: as §1
# [29] = molecular target: Fuc(a1-3)[Gal(b1-4)]GlcNAc(b1-2)Man(a1-3)[Fuc(a1-3)[Gal(b1-4)]GlcNAc(b1-2)Man(a1-6)]Man(b1-4)GlcNAc(b1-4)GlcNAc
# Method in brief: as §1
# [30] = molecular target: Fuc(a1-3)[Gal(b1-4)]GlcNAc(b1-2)Man(a1-3)[Fuc(a1-3)[Gal(b1-4)]GlcNAc(b1-2)Man(a1-6)]Man(b1-4)GlcNAc(b1-4)[Fuc(a1-6)]GlcNAc
# Method in brief: as §1
# [31] = molecular target: Fuc(a1-3)[Gal(b1-4)]GlcNAc(b1-3)Gal(b1-3)[Fuc(a1-4)]GlcNAc
# Method in brief: as §1
# [32] = molecular target: Fuc(a1-3)[Gal(b1-4)]GlcNAc(b1-3)GalNAc
# Method in brief: as §1
# [33] = molecular target: Fuc(a1-3)[Gal(b1-4)]GlcNAc(b1-4)Gal(b1-4)[Fuc(a1-3)]GlcNAc
# Method in brief: as §1
# [34] = molecular target: Fuc(a1-3)[Gal(b1-4)]GlcNAc(b1-4)Gal(b1-4)[Fuc(a1-3)]GlcNAc(b1-4)Gal(b1-4)[Fuc(a1-3)]GlcNAc
# Method in brief: as §1
# [35] = molecular target: Fuc(a1-3)[Gal(b1-4)]GlcNAc(b1-6)GalNAc
# Method in brief: as §1
# [36] = molecular target: Fuc(a1-3)[Gal(b1-4)]GlcNAc(b1-6)[Gal(b1-3)GlcNAc(b1-3)]Gal(b1-4)Glc
# Method in brief: as §1
# [37] = molecular target: Fuc(a1-3)[Gal(b1-4)]GlcNAc(b1-6)[Neu5Ac(a2-3)Gal(b1-3)]GalNAc
# Method in brief: as §1
# [38] = molecular target: Fuc(a1-3)[Gal(b1-4)]GlcNAc6S
# Method in brief: as §1
# [39] = molecular target: Fuc(a1-3)[Gal3S(b1-4)]GlcNAc
# Method in brief: as §1
# [40] = molecular target: Fuc(a1-3)[Gal3S(b1-4)]GlcNAc6S
# Method in brief: as §1
# [41] = molecular target: Fuc(a1-3)[GalNAc(b1-4)]GlcNAc
# Method in brief: as §1
# Fuc(a1-4)GlcNAc = molecular target: Fuc(a1-4)GlcNAc
# Method in brief: as §1
# Fuc(b1-3)GlcNAc = molecular target: Fuc(b1-3)GlcNAc
# Method in brief: as §1
# Gal(a1-2)Gal = molecular target: Gal(a1-2)Gal
# Method in brief: as §1
binder,measurement,setting,value
B1,glycan array binding signal (z-score),[1],-0.297
same,glycan array binding signal (z-score),[2],-0.308
same,glycan array binding signal (z-score),[3],0.048
same,glycan array binding signal (z-score),[4],1.44
same,glycan array binding signal (z-score),[5],-0.277
same,glycan array binding signal (z-score),[6],-0.107
same,glycan array binding signal (z-score),[7],-0.299
same,glycan array binding signal (z-score),[8],-0.122
same,glycan array binding signal (z-score),[9],-0.303
same,glycan array binding signal (z-score),[10],-0.306
same,glycan array binding signal (z-score),[11],-0.276
same,glycan array binding signal (z-score),[12],-0.3
same,glycan array binding signal (z-score),[13],0.427
same,glycan array binding signal (z-score),[14],2.83
same,glycan array binding signal (z-score),[15],-0.06
same,glycan array binding signal (z-score),[16],-0.308
same,glycan array binding signal (z-score),[17],-0.305
same,glycan array binding signal (z-score),[18],0.005
same,glycan array binding signal (z-score),[19],1.56
same,glycan array binding signal (z-score),[20],-0.303
same,glycan array binding signal (z-score),[21],-0.235
same,glycan array binding signal (z-score),[22],-0.184
same,glycan array binding signal (z-score),[23],-0.299
same,glycan array binding signal (z-score),[24],0.522
same,glycan array binding signal (z-score),[25],-0.306
same,glycan array binding signal (z-score),[26],-0.306
same,glycan array binding signal (z-score),Fuc(a1-3)GlcNAc,-0.306
same,glycan array binding signal (z-score),[27],-0.293
same,glycan array binding signal (z-score),[28],-0.303
same,glycan array binding signal (z-score),[29],-0.255
same,glycan array binding signal (z-score),[30],0.111
same,glycan array binding signal (z-score),[31],-0.282
same,glycan array binding signal (z-score),[32],-0.206
same,glycan array binding signal (z-score),[33],0.32
same,glycan array binding signal (z-score),[34],-0.251
same,glycan array binding signal (z-score),[35],0.075
same,glycan array binding signal (z-score),[36],-0.303
same,glycan array binding signal (z-score),[37],-0.066
same,glycan array binding signal (z-score),[38],-0.291
same,glycan array binding signal (z-score),[39],-0.305
same,glycan array binding signal (z-score),[40],-0.215
same,glycan array binding signal (z-score),[41],-0.278
same,glycan array binding signal (z-score),Fuc(a1-4)GlcNAc,-0.308
same,glycan array binding signal (z-score),Fuc(b1-3)GlcNAc,-0.304
same,glycan array binding signal (z-score),Gal(a1-2)Gal,-0.303
